Results: the supplement of paper PMC4967469

Legend:
Assay in all cases: Viability of human cancer cell lines after 72 h of drug (GDSC screen)
[1] = compound: Cc1sc2c(c1C)C(c1ccc(Cl)cc1)=N[C@@H](CC(=O)OC(C)(C)C)c1nnc(C)n1-2 [JQ1]
Method: (§1)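 Human cancer cell lines in 384-well plates, medium with 10% serum, drug for 72 h over a 256-fold dose range (nine 2-fold or five 4-fold steps up to the top dose). Adherent lines were fixed and stained with the nucleic acid dye Syto60, suspension lines read with resazurin; signal relative to control wells, capped at 0 and 100%. One two-parameter sigmoid per drug and line, fitted in a mixed model over all curves with the slope shared within a line.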

[2] = compound: c1ccc2c(CCNc3ccc(Nc4ccncc4)cc3)c[nH]c2c1 [JNJ-26854165]; conditions: top dose 10 µM
Method: as §1

[3] = compound: C[C@]1(O)C[C@@H](c2nc(-c3ccc4ccc(-c5ccccc5)nc4c3)c3c(N)nccn32)C1 [OSI-906]; conditions: top dose 2.56 µM; top dose inferred
Method: as §1

[4] = compound: Cc1ccc(C(=O)N(CCCN)[C@@H](c2nc3cc(Cl)ccc3c(=O)n2Cc2ccccc2)C(C)C)cc1 [SB-715992]; conditions: top dose 0.128 µM; top dose inferred
Method: as §1

[5] = compound: COCC[n+]1c2c(n(Cc3cnccn3)c1C)C(=O)c1ccccc1C2=O [YM155]; conditions: top dose 5.12 µM
Method: as §1

[6] = compound: CCOc1nc(NC(=O)Cc2cc(OC)ccc2OC)cc(N)c1C#N [JNK Inhibitor VIII]; conditions: top dose 10 µM; top dose inferred
Method: as §1

[7] = compound: COC(=O)[C@H](CCSC)NC(=O)c1ccc(NC[C@@H](N)CS)cc1-c1ccccc1 [FTI-277]; conditions: top dose 1.024 µM; top dose inferred
Method: as §1

[8] = compound: CC1(C)CNc2cc(NC(=O)c3cccnc3NCc3ccncc3)ccc21 [AMG-706]; conditions: top dose 2 µM; top dose inferred
Method: as §1

[9] = compound: CN1CCN(c2ccc([N+](=O)[O-])c3no[n+]([O-])c23)CC1 [NSC-207895]; conditions: top dose 20 µM; top dose inferred
Method: as §1

[10] = compound: CC(=O)O[C@@]12CO[C@@H]1C[C@H](O)[C@@]1(C)C(=O)[C@H](O)C3=C(C)[C@@H](OC(=O)[C@H](O)[C@@H](NC(=O)OC(C)(C)C)c4ccccc4)C[C@@](O)([C@@H](OC(=O)c4ccccc4)[C@H]21)C3(C)C [Docetaxel]; conditions: top dose 0.0125 µM
Method: as §1

[11] = compound: O=C(/C=C/c1cccc(S(=O)(=O)Nc2ccccc2)c1)NO [Belinostat]; conditions: top dose 20 µM; top dose inferred
Method: as §1

[12] = top dose 1 µM, screen: GDSC drug entry 1218, top dose inferred
[13] = top dose 2.56 µM, screen: GDSC drug entry 163

Cell Line | AUC [1, 12] | IC50 [1, 12] [nM] | AUC [1, 13] | IC50 [1, 13] [nM] | AUC [2] | IC50 [2] [nM] | AUC [3] | IC50 [3] [nM] | AUC [4] | IC50 [4] [nM] | AUC [5] | IC50 [5] [nM] | AUC [6] | IC50 [6] [nM] | AUC [7] | IC50 [7] [nM] | AUC [8] | IC50 [8] [nM] | AUC [9] | IC50 [9] [nM] | AUC [10] | IC50 [10] [nM] | AUC [11] | IC50 [11] [nM]
Capan-2 (pancreas, adherent) | 0.922 | > 1000 | 0.943 | > 2560 | 0.925 | > 10000 | 0.852 | > 2560 | 0.976 | > 128 | 0.248 | 50.6 | 0.975 | > 10000 | 0.911 | > 1020 | 0.981 | > 2000 | 0.818 | 14500 | 0.927 | > 12.5 | 0.944 | > 20000
NCI-H841 (small cell lung carcinoma, adherent) | 0.987 | > 1000 | 0.949 | > 2560 | 0.932 | > 10000 | 0.986 | > 2560 | 0.633 | 18.7 | 0.054 | < 20 | 0.963 | > 10000 | 0.987 | > 1020 | 0.979 | > 2000 | 0.833 | 13000 | 0.678 | 2.45 | 0.577 | 2030
SCC-25 (head and neck, adherent) | 0.954 | > 1000 | 0.722 | 750 | 0.911 | > 10000 | 0.973 | > 2560 | 0.756 | 49.1 | 0.057 | < 20 | 0.984 | > 10000 | 0.967 | > 1020 | 0.982 | > 2000 | 0.907 | > 20000 | 0.526 | 0.928 | 0.279 | 270
EGI-1 (biliary tract, adherent) | 0.98 | > 1000 | 0.873 | > 2560 | 0.92 | > 10000 | 0.906 | > 2560 | 0.884 | > 128 | 0.166 | 21.1 | 0.964 | > 10000 | 0.969 | > 1020 | 0.982 | > 2000 | 0.973 | > 20000 | 0.735 | 4.55 | 0.695 | 5240
HCC-44 (lung adenocarcinoma, adherent) | 0.985 | > 1000 | 0.568 | 245 | 0.932 | > 10000 | 0.832 | 1590 | 0.602 | 15.1 | 0.046 | < 20 | 0.947 | > 10000 | 0.947 | > 1020 | 0.955 | > 2000 | 0.908 | > 20000 | 0.331 | 0.267 | 0.301 | 351

A lower IC50 marks a more sensitive line; a fit beyond the top or the lowest dose is shown as a bound at that dose. For AUC the same curve is integrated over the 256-fold range of doses and scaled to a fraction; it is 1 without any effect and falls as sensitivity rises. For part of these data: A top dose marked as inferred is not printed in the source and was worked back from the curve model. For part of these data: An entry number marks a drug with two screens in the source, which often give different values.
